Measured values: PubChem BioAssay (NCATS)
This list was built around the results that the source calls inconclusive (neither active nor inactive); the mix of calls is not that of the screen. Where the call is inconclusive, the potency comes from a doubtful curve fit. Activity calls are given as the source filed them. The call rests on the fitted dose curve; in most records, active means well fitted curve in the direction sought with a large enough effect; inconclusive means small, poorly fitted or top-dose-only effect, or another doubt; inactive means no such curve, though single readings can be large; an effect the other way counts as inactive or inconclusive.

Key:
[1] = system: CASKI; assay: Primary qHTS to identify gynecologic anti-cancer compounds using libraries of approved drugs and bioactive compounds (AID 1345084); details: Gynecologic cancer cell panel viability, ATPlite luminescence, 48 h; series mostly up to 57.5 µM; further: nearly all actives have a fitted effect of over 55% in size; on activity change, negative = cytotoxicity: on the % scale 0 is the no-effect control and ±100 the full control effect
Outline: (§1)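 48 h compound exposure at 37 C, 5% CO2; five-point qHTS. ATPlite luminescence readout of cell ATP.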

[2] = system: Es-2; assay: as above; details: Gynecologic cancer cell panel viability, ATPlite luminescence, 48 h; series mostly up to 57.5 µM
Outline: as §1

[3] = system: OV90; assay: as above; details: Gynecologic cancer cell panel viability, ATPlite luminescence, 48 h; series mostly up to 57.5 µM
Outline: as §1

[4] = system: PA-1; assay: as above; details: Gynecologic cancer cell panel viability, ATPlite luminescence, 48 h; series mostly up to 57.5 µM
Outline: as §1

[5] = system: SKOV3; assay: as above; details: Gynecologic cancer cell panel viability, ATPlite luminescence, 48 h; activity change, negative = cytotoxicity: at 57.5 µM (top of the series) unless noted
Outline: as §1

[6] = system: Hek293T; assay: as above; details: Gynecologic cancer cell panel viability, ATPlite luminescence, 48 h, control line for the selectivity index; series mostly up to 57.5 µM
Outline: as §1

[7] = system: Tov-21-G; assay: as above; details: Gynecologic cancer cell panel viability, ATPlite luminescence, 48 h; series mostly up to 57.5 µM
Outline: as §1

[8] = system: Tov112D; assay: as above; details: Gynecologic cancer cell panel viability, ATPlite luminescence, 48 h; series mostly up to 57.5 µM
Outline: as §1

[9] = qHTS assay to identify inhibitors of the type 1 interferon - major histocompatibility complex class I in skeletal muscle: Counter screen cell viability and HiBit confirmation (AID 1347412); details: iHSKM muscle cells + IFN-b, HiBiT or CellTiter-Glo, 24 h; for Potency: Viability; on activity change, negative = inhibition: on the % scale 0 is the no-effect control and ±100 the full control effect; on all read-outs here: nearly all actives have a fitted effect of over 60% in size
Outline: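 HLA-B*08:01–HiBiT knock-in immortalized human myoblasts (C25cl48) stimulated with 4.0 ng/ml human IFN-beta and dosed with compound in a 12-point 1:3 titration (top final 46 uM). After 24 hrs at 37 C, HiBiT lytic luminescence or CellTiter Glo ATP read out.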

[10] = system: astro; assay: Drug repurposing screens with cells derived from glioblastoma tumor samples (AID 1345199); details: viability, ATP luminescence, 48 h; activity, negative = cell killing: at 45.9 µM (top of the series); further: nearly all actives have a fitted effect of over 40% in size
Outline: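 Primary testing used CD133+ neurospheres from four GBM patients, seven concentrations, 48 h exposure and ATP-based viability; confirmation added three slower-growing patient lines.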

[11] = system: JEG-3; assay: Primary qHTS to identify gynecologic anti-cancer compounds using libraries of approved drugs and bioactive compounds (AID 1345084); details: Gynecologic cancer cell panel viability, ATPlite luminescence, 48 h; series mostly up to 57.5 µM; further: nearly all actives have a fitted effect of over 55% in size; on activity change, negative = cytotoxicity: on the % scale 0 is the no-effect control and ±100 the full control effect
Outline: as §1

[12] = system: HeLa; assay: as above; details: Gynecologic cancer cell panel viability, ATPlite luminescence, 48 h; series mostly up to 57.5 µM
Outline: as §1
Potency means the concentration at half of the fitted maximal effect; tags describe the fitted curve by direction and shape.

CC(C)(N)c1ccc(-c2nc3ccccc3nc2-c2ccccc2)cc1
Potency [1]: inconclusive: 31.6 µM [cytotoxic, single point] | Potency [2]: inconclusive: 39.8 µM [cytotoxic, partial curve, poor fit] | Potency [3]: inconclusive: 31.6 µM [cytotoxic, single point] | Potency [4]: inconclusive: 22.4 µM [cytotoxic, single point] | Potency [5]: inconclusive: 39.8 µM [cytotoxic, single point]

CC1(C)CC(=O)c2c(C(F)(F)F)nn(-c3ccc(C(N)=O)c(NC4CCC(OC(=O)CN)CC4)c3)c2C1 (configuration not stated)
Potency [1]: inconclusive: 0.501 µM [cytotoxic, full curve, poor fit] | Potency [2]: inconclusive: 0.794 µM [cytotoxic, full curve] | Potency [6]: inconclusive: 0.447 µM [cytotoxic, full curve] | Potency [4]: active: 0.316 µM | Potency [5]: inconclusive: 0.708 µM [cytotoxic, full curve, poor fit] | Potency [7]: active: 0.355 µM | Potency [8]: inconclusive: 0.562 µM [cytotoxic, full curve, poor fit] | Potency [9]: inconclusive: 0.442 µM [cytotoxic, full curve]

CCc1c2c(nc3ccc(OC(=O)N4CCC(N5CCCCC5)CC4)cc13)-c1cc3c(c(=O)n1C2)COC(=O)[C@]3(O)CC
Potency [1]: inconclusive: 25.1 µM [cytotoxic, single point] | Potency [2]: active: 14.1 µM | Potency [5]: inconclusive: 39.8 µM [cytotoxic, single point] | Potency [8]: active: 10 µM | Potency [10]: inconclusive: 35.5 µM [inhibitor, single point]

Cc1[nH]nc2ccc(-c3cncc(OC[C@@H](N)Cc4ccccc4)c3)cc12
Potency [1]: active: 6.31 µM | Potency [6]: active: 1.78 µM | Potency [11]: active: 10 µM | Potency [3]: active: 3.55 µM | Potency [4]: active: 3.55 µM | Potency [5]: inconclusive: 14.1 µM [cytotoxic, partial curve, poor fit] | Potency [7]: active: 2.82 µM | Potency [8]: active: 2 µM

COc1cc2c(N3CCN(C(=O)Nc4ccc(OC(C)C)cc4)CC3)ncnc2cc1OCCCN1CCCCC1
Potency [1]: inconclusive: 12.6 µM [cytotoxic, partial curve] | Potency [11]: inconclusive: 28.2 µM [cytotoxic, single point] and inactive | Potency [3]: inconclusive: 35.5 µM [cytotoxic, single point] | Potency [4]: inconclusive: 39.8 µM [cytotoxic, single point] | Potency [5]: inconclusive: 35.5 µM [cytotoxic, single point] | Potency [10]: inconclusive: 17.8 µM [inhibitor, partial curve]

CC(=O)O[C@H]1C(=O)[C@@]2(C)C([C@H](OC(=O)c3ccccc3)[C@]3(O)C[C@H](OC(=O)[C@H](O)[C@@H](NC(=O)c4ccccc4)c4ccccc4)C(C)=C1C3(C)C)[C@]1(OC(C)=O)CO[C@@H]1C[C@@H]2O (some centres not stated)
Potency [1]: inconclusive: 0.0794 µM | Potency [2]: active: 0.282 µM | Potency [4]: inconclusive: 0.0794 µM | activity change, negative = cytotoxicity [5]: inconclusive: -81% [at 38.5 µM] | Potency [7]: inconclusive: 0.1 µM [cytotoxic, full curve] | Potency [8]: inconclusive: 0.1 µM

CN1CCN2c3ccccc3Cc3ccccc3C2C1 (configuration not stated)
Potency [1]: inconclusive: 39.8 µM [cytotoxic, single point] | Potency [6]: inconclusive: 35.5 µM [cytotoxic, single point] | Potency [3]: inconclusive: 39.8 µM [cytotoxic, single point] | Potency [4]: inconclusive: 39.8 µM [cytotoxic, single point] | Potency [5]: inconclusive: 12.6 µM [cytotoxic, single point] | Potency [7]: inconclusive: 8.91 µM [cytotoxic, partial curve, poor fit] | Potency [8]: inconclusive: 39.8 µM [cytotoxic, single point]

c1nc2nc(Nc3ccc(N4CCOCC4)cc3)nc(NC3CCCCC3)c2[nH]1
Potency [1]: inconclusive: 11.2 µM [cytotoxic, single point] | Potency [11]: inconclusive: 2.24 µM [cytotoxic, partial curve, poor fit] | Potency [4]: inconclusive: 3.55 µM [cytotoxic, partial curve] | Potency [5]: inconclusive: 7.08 µM [cytotoxic, partial curve, poor fit] | Potency [7]: inconclusive: 3.98 µM [cytotoxic, full curve] | Potency [8]: inactive

O=c1[nH]nc(OCCCc2ccc(Cl)cc2)c(NCc2cccnc2)c1Br
Potency [1]: inconclusive: 11.2 µM [cytotoxic, partial curve] | Potency [6]: inconclusive: 12.6 µM [cytotoxic, partial curve] | Potency [11]: inconclusive: 14.1 µM [cytotoxic, single point] | Potency [3]: inconclusive: 39.8 µM [cytotoxic, single point] | Potency [4]: inconclusive: 10 µM [cytotoxic, partial curve, poor fit] | Potency [5]: inconclusive: 20 µM [cytotoxic, partial curve, poor fit] | Potency [7]: inconclusive: 22.4 µM [cytotoxic, single point] | Potency [8]: inconclusive: 31.6 µM [cytotoxic, partial curve, poor fit]

C[C@]1(CO)CN(c2cc(C(=O)Nc3ccc4c(c3)-c3c(c(C(N)=O)nn3-c3ccc(F)cc3)CC4)c(Cl)cn2)C[C@@]1(C)CO
Potency [1]: inconclusive: 22.4 µM [cytotoxic, single point] | Potency [2]: inconclusive: 39.8 µM [cytotoxic, single point] | Potency [5]: inconclusive: 31.6 µM [cytotoxic, single point] | Potency [7]: inconclusive: 31.6 µM [cytotoxic, single point] | Potency [8]: inconclusive: 31.6 µM [cytotoxic, single point]

Clc1cccc(-n2nnnc2NCc2ccccc2Oc2ccccn2)c1Cl
Potency [1]: inactive | Potency [6]: inactive | Potency [3]: inactive | Potency [5]: inactive

O=C(NOC[C@H](O)CO)c1ccc(F)c(F)c1Nc1ccc(I)cc1F
Potency [1]: inactive | Potency [2]: inconclusive: 3.98 µM [cytotoxic, partial curve, poor fit] | Potency [3]: inconclusive: 0.112 µM [cytotoxic, full curve, poor fit] | Potency [7]: inconclusive: 0.251 µM [cytotoxic, full curve] | Potency [10]: active: 0.447 µM

CCN(CCO)CCCOc1ccc2c(Nc3cc(CC(=O)Nc4cccc(F)c4)[nH]n3)ncnc2c1
Potency [1]: inconclusive: 14.1 µM [cytotoxic, partial curve, poor fit] | Potency [3]: inconclusive: 39.8 µM [cytotoxic, single point] | Potency [4]: inconclusive: 39.8 µM [cytotoxic, single point] | Potency [8]: inconclusive: 22.4 µM [cytotoxic, partial curve, poor fit]

CC1(COc2ccc3c(c2)ncn3-c2ccc3cccc(N4CCC(N)CC4)c3n2)COC1
Potency [1]: inconclusive: 39.8 µM [cytotoxic, single point] | Potency [6]: active: 20 µM | Potency [11]: inconclusive: 39.8 µM [cytotoxic, single point] | Potency [3]: inconclusive: 8.91 µM [cytotoxic, partial curve] | Potency [4]: active: 8.91 µM | Potency [5]: inconclusive: 25.1 µM [cytotoxic, single point] | Potency [7]: inconclusive: 10 µM [cytotoxic, partial curve] | Potency [8]: inconclusive: 31.6 µM [cytotoxic, single point] | Potency [9]: active: 27.9 µM

Nc1ccn(C2CO[C@H](CO)O2)c(=O)n1 (some centres not stated)
Potency [1]: inactive | Potency [11]: inactive

c1cc(N[C@@H]2CCNC2)nc(-c2cnc3ccc(-c4cn[nH]c4)cn23)c1
Potency [1]: inconclusive: 22.4 µM [cytotoxic, partial curve, poor fit] | Potency [3]: inconclusive: 22.4 µM [cytotoxic, partial curve, poor fit] | Potency [4]: active: 10 µM | Potency [5]: inconclusive: 15.8 µM [cytotoxic, partial curve] | Potency [7]: inconclusive: 35.5 µM [cytotoxic, single point] | activity change, negative = inhibition ([9]; HiBiT, at 45.9 µM (top of the series)): inactive: -13.1%

CN(C)CCCC1(c2ccc(F)cc2)OCc2cc(C#N)ccc21 (configuration not stated)
Potency [1]: inconclusive: 39.8 µM [cytotoxic, single point] | Potency [3]: inconclusive: 35.5 µM [cytotoxic, single point]

COc1ccc(-c2ccc3cc(C(=O)O)ccc3c2)cc1C12CC3CC(CC(C3)C1)C2
Potency [12]: inactive

Cn1cnc2c(F)c(Nc3ccc(Br)cc3F)c(C(=O)NOCCO)cc21
Potency [2]: inconclusive: 1.58 µM [cytotoxic, partial curve, poor fit] | Potency [4]: inconclusive: 1 µM [cytotoxic, partial curve, poor fit] | Potency [7]: inconclusive: 0.631 µM [cytotoxic, full curve]

O=C(O)CCc1ccc(NCc2cccc(Oc3ccccc3)c2)cc1
Potency [2]: inconclusive: 28.2 µM [cytotoxic, single point] | Potency [12]: inconclusive: 28.2 µM [cytotoxic, single point] | Potency [6]: inconclusive: 22.4 µM [cytotoxic, single point] | Potency [3]: inconclusive: 39.8 µM [cytotoxic, single point] | Potency [4]: inconclusive: 31.6 µM [cytotoxic, single point] | Potency [5]: inconclusive: 39.8 µM [cytotoxic, single point] | Potency [7]: inconclusive: 31.6 µM [cytotoxic, single point] | Potency [8]: inconclusive: 39.8 µM [cytotoxic, single point]

CCCS(=O)(=O)Nc1ccc(F)c(C(=O)c2c[nH]c3ncc(Cl)cc23)c1F
Potency [2]: inconclusive: 28.2 µM [cytotoxic, single point] | Potency [4]: inconclusive: 39.8 µM [cytotoxic, single point] | Potency [5]: inconclusive: 39.8 µM [cytotoxic, single point] | Potency [7]: inconclusive: 39.8 µM [cytotoxic, single point]
